# Results taken from the supplement of paper PMC4466236.
# In all, about 33,000 sequences were measured (“E-score (dimensionless, -0.5 to 0.5)”: median about -0.058, highest 2% from about 0.35 on). Some of the results follow.
# Tested on: MvaT
# Assay: PBM 8-mer E-score (mean of HK and ME arrays) (E-score (dimensionless, -0.5 to 0.5)); higher = stronger relative binding preference; most listed sequences are background and not binding sites
# Procedure, shortened: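 Reported values are rank-based E-scores, taken as the mean of two universal arrays and parsed with a custom script. Each 8-mer score falls between -0.5 and 0.5. The arrays, ME and HK, were double-stranded 60-mers with a constant 25-mer primer region and a variable 35-mer region covering all 8-mers. They were probed, by an earlier protocol, with full-length P. aeruginosa MvaT carrying an N-terminal glutathione S-transferase fusion.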
row,Sequence,PBM 8-mer E-score
1,AGACGGCA,-0.137
2,ATGGCGCC,-0.322
3,AAGTCGCA,-0.0674
4,CCATAAGC,-0.088
5,ACAGCTGC,-0.202
6,ATGATTGA,0.0689
7,ATAACCTG,0.107
8,CTGACCTA,-0.113
9,GGAGGGCC,-0.37
10,ACCACACA,0.00122
11,ATCTGCCA,-0.00975
12,CTCGCTTA,-0.0449
13,CCACGCAC,-0.239
14,ATATGGTC,0.181
15,AAATTGTT,0.351
16,ATAACTTA,0.429
17,CATTAACA,0.274
18,CGACTGAG,-0.00932
19,AGTGGAAT,0.0494
20,CCCCGCCG,-0.227
21,GAGTTGTA,0.287
22,CGTTCCTC,-0.32
23,AACCGAGG,-0.136
24,CACTGTTA,0.184
25,CCTAACGC,-0.185

row,Sequence,PBM 8-mer E-score
1,CATCAGTA,-0.0832
2,AGCTGAAT,-0.0807
3,CATCATGA,0.0333
4,ACGACTCC,-0.154
5,AACCGCAG,-0.0784
6,ACCGCTGC,-0.292
7,CATTGTAA,0.237
8,CTTCGAGA,-0.142
9,GTCAAAAA,0.0796
10,AAAGTGAC,0.118
11,CCTAGTCA,-0.00162
12,ACGACAAG,-0.11
13,GACAGTCC,-0.189
14,TAAATATA,0.442
15,ACTGGCCT,-0.159
16,GCTTGGCA,-0.277
17,ACGGCTGG,-0.191
18,CGCTGATA,0.0618
19,AGGTACGG,-0.239
20,ACAGGCGG,-0.147
21,CAGAGTAG,-0.121
22,ATGACATG,-0.0134
23,CACTTGTA,0.139
24,GCAGTGCA,-0.229
25,ACCACGGA,-0.0173

row,Sequence,PBM 8-mer E-score
1,TAACTGAA,0.19
2,TTAGAAAA,0.211
3,ACTTTTCG,0.166
4,CTGAGCTA,-0.0354
5,ATTAACAG,0.334
6,ATATTGTG,0.251
7,CAGTTCAC,-0.0234
8,AGAGGCAC,-0.223
9,CACACAAA,0.0457
10,GTGCGCGA,-0.136
11,CAGTATCA,-0.0367
12,ATGCCACG,-0.155
13,GTCAGCTA,-0.192
14,GTATGGCA,-0.0837
15,CTGCCCAC,-0.14
16,GCATAAGC,-0.098
17,ACTCCTAC,-0.0769
18,AGACTCGG,-0.243
19,CAACATTA,0.293
20,ATACCAAG,-0.0486
21,ACGTCGAC,-0.0976
22,ACCACTCT,-0.0718
23,ACTTATCG,0.216
24,CCGGTTCC,-0.277
25,CGAGCCCG,-0.182

row,Sequence,PBM 8-mer E-score
1,TGCGAGAA,0.0245
2,CCTACTAA,-0.0552
3,CCCTAACC,-0.199
4,TATGCTGA,0.0195
5,ACTGCAAA,0.165
6,CCGTGGAA,-0.16
7,CCTGGCAG,-0.209
8,ATCAGCAT,0.05
9,ATGAACCA,-0.0261
10,CGACCTCA,-0.184
11,CCCTACGA,-0.216
12,ACGAGGAG,-0.365
13,AAGTGGGC,-0.0768
14,AAAAGTTT,0.352
15,CATGTGTC,-0.0494
16,AATATACC,0.324
17,ACCATACC,-0.137
18,CCCAGAGA,-0.136
19,ATACCTGG,-0.0755
20,CGATGTGA,-0.146
21,TCCAAACA,0.0422
22,CGCTTTTC,0.115
23,GACAAGAC,-0.119
24,AACGTTGT,0.177
25,CGAAGACG,-0.178

row,Sequence,PBM 8-mer E-score
1,CAGTGAGA,0.0259
2,TTCTTCAA,0.146
3,AATCAGCC,0.0374
4,TAAGATAA,0.337
5,CTGTTGTC,-0.0748
6,CTCTGGCA,-0.164
7,CTTTTACC,0.0416
8,CGTCTTAA,0.107
9,GTTTATGA,0.208
10,ATCTTGAA,0.111
11,AGGGTACA,0.0185
12,ACAGGGTC,-0.285
13,CGTGGGCC,-0.328
14,AGCAAAAT,0.192
15,CTGGACGA,-0.188
16,AAAACGGC,-0.000299
17,CGGAACAA,0.000205
18,AATGTTAC,0.186
19,CGGTCTTA,-0.115
20,AGTCGGTC,-0.0888
21,GGTGGCGA,-0.142
22,CACATACC,0.0256
23,GAACTTAC,0.228
24,GTCACGAA,-0.196
25,CGGACAAA,0.029

row,Sequence,PBM 8-mer E-score
1,AGCTTCTC,-0.282
2,CCAGCGGG,-0.312
3,ATATGTAG,0.264
4,AAAACACG,0.122
5,GCTGGCTA,-0.274
6,GCAGTAAA,0.157
7,AGTTTTCC,0.136
8,AGCTTAAC,0.0325
9,ATGCAGAA,0.0633
10,CGAATACA,0.199
11,ATATCATG,0.22
12,CCTTCTAA,-0.0128
13,ATGTGCAG,0.00997
14,CCTAGGGC,-0.21
15,ATTATTAC,0.439
16,CATGAATG,-0.015
17,AATAGGGG,0.0834
18,CGCAGGAG,-0.145
19,GCCCACAC,-0.149
20,AAGGTGTC,-0.145
21,ACGGTAGT,0.029
22,CTATGCTC,-0.201
23,ATTAGGGA,0.00465
24,AAACGCTG,0.0263
25,AGAAAGAT,0.0974

row,Sequence,PBM 8-mer E-score
1,CATACTTC,0.224
2,CTTCCTTC,-0.208
3,TGCGGCAA,0.00408
4,GTAACCAC,-0.0487
5,TAAACGCA,0.152
6,AGATGAAT,0.0926
7,AGGGTAAG,-0.101
8,GCTAGGTA,0.102
9,TCCCACGA,-0.0595
10,CCGGACTA,-0.117
11,CGGCATAC,-0.0769
12,AAAAACGT,-0.00215
13,AGGCTTAC,-0.247
14,ATTACACG,0.157
15,AACAAATA,0.369
16,CACACGAC,-0.0827
17,AAGTTGTG,0.179
18,GGAGCGAC,-0.217
19,CGTTGGGC,-0.274
20,GAACTCTA,0.0278
21,CCAAAAAA,0.112
22,GCTCCCCC,-0.391
23,AGGCTGAT,-0.0817
24,ACGCATCG,-0.196
25,CATACGTA,-0.0616

row,Sequence,PBM 8-mer E-score
1,GTGATCTA,-0.117
2,ACCACATA,0.21
3,ACTCTTGA,-0.112
4,GGGCATAA,-0.0189
5,TCAATTAA,0.237
6,GAACGTAC,-0.0393
7,ATAACTCA,0.232
8,CTCTTTAA,0.00514
9,ACATCTAC,0.113
10,GGGTTCGA,-0.0836
11,TGAGGGCA,-0.307
12,GGGTCAAC,-0.238
13,GAAGGAAA,-0.229
14,GCAGTTAA,0.248
15,TCCTACCA,-0.239
16,ATTCCTTG,-0.0186
17,CAAATGCG,-0.0484
18,ATTGAACC,0.0543
19,AATATCCC,0.174
20,ATTAGGGC,-0.152
21,AACGCTGT,-0.107
22,AGCCGCAC,-0.168
23,AACGTCAG,-0.0661
24,CATCGTTC,-0.148
25,AGTGCCGA,-0.0895

row,Sequence,PBM 8-mer E-score
1,GAGATAGC,-0.108
2,GAACTTCA,0.176
3,GGTGTCAA,-0.0181
4,CGCCTCAC,-0.231
5,GCTAAAAC,-0.0314
6,CAGAGTTC,0.0397
7,CCCGCTAG,-0.135
8,CTCTGCGC,-0.134
9,AGTATTGC,0.0989
10,GGTACAAC,0.073
11,CTAGCCTA,-0.138
12,CCTGACGA,-0.119
13,CGCCCTTC,-0.242
14,AGGACGGG,-0.152
15,TAGCGTAA,0.0857
16,CAACCAAC,0.0281
17,TTCGGAAA,0.00334
18,ATTAGATA,0.312
19,AGCCTCCA,-0.276
